In article PMC12136788:
Some of the results follow.

T1: UNK ZnF1-3 (human, UniProt Q9C0B0 31-174)
T1 sequence: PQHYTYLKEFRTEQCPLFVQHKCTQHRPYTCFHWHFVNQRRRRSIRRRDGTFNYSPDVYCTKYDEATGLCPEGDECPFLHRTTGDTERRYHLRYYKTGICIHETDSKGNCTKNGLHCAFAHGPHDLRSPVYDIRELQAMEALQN

B1: chr7:56130949:56130950:+_ENSG00000146731_ENST00000540286|hu_hu|motif|central (ssRNA)
RNA: GGGAGUUCUACAGUCCGACGAUCUCACUGGAUAAAAGACCUGCUUUAUGUGUAUACACUUCAGUGCAAUUUUUAAAAAUACGGUAAUUUCAGAACUUCCAAAUUUCAACAGAUGCCAGUGUUCUCUCCUUUUUUCAUAUGGGACAACAGAGGAUUGAGCAUCA
B2: 37433538_37433658_8137_3pUTR_ENSMUSG00000026915_ENSMUST00000028279|mouse|control|control (ssRNA)
RNA: GGGAGUUCUACAGUCCGACGAUCCAAGGUACAAGAACUCCUCAAAGAAAAUGAGUCAACAGCAUCCUAAGCAUGCUUCCUAUAAUAACUUGUUCUUUACCAACAAACACACAAGCCUUGAAAACUUGAUUCUGGCUGUUGUAGCAACAGAGGAUUGAGCAUCA
B3: chr1:60041781:60041782:+_ENSMUSG00000041040_ENSMUST00000036540|mus_hu|mus_mus_mus_hu_False|58_78 (ssRNA)
RNA: GGGAGUUCUACAGUCCGACGAUCAAGUUUACAAUAGUAAAGUAAAUGCAGUAGUGGAAUGGCAAGUUUUAUUUUCCUUCCUAAAAGAAAAUCUUUAUAACCCAGUCCUAGUCUUGGACAUAGUGAAAGCUAUAAAUUCUGACUCAACAGAGGAUUGAGCAUCA
B4: chr13:42873578:42873579:+_ENSG00000023516_ENST00000025301|hu_hu|FALSE|FALSE (ssRNA)
RNA: GGGAGUUCUACAGUCCGACGAUCUUUAGCCAAUGACUUCUGCUGUCCAGAGCUAAUGAGAAUCUUUAAAUCAUGGGUUUCUAAAUGAUGACCAGUAACCGUCUGGGAAGCAGCAUCACACUGGCUCCUUAGCACAGUAAUGUUCAACAGAGGAUUGAGCAUCA
B5: chr7:135612270:135612271:-_ENSG00000105887_ENST00000393085|hu_mus|hu_hu_hu_mus_False|18_88 (ssRNA)
RNA: GGGAGUUCUACAGUCCGACGAUCGUUUUUUUCUGAGAUGUUAAAUAUUCAGUGGAGGGAAAACAAAACUUAACCUUUUAUUAAUGCGUGUUGUACCAAAAGCAGACAUUUUAGCUUGCUUCCUUUAAAAAUAUUAACAUUAAGCAACAGAGGAUUGAGCAUCA
B6: chr21:34922442:34922443:+_ENSG00000159140_ENST00000381679|hu_hu|motif|central (ssRNA)
RNA: GGGAGUUCUACAGUCCGACGAUCCUCAGUAGGUGUCUCUGAUGAUACCACAAGGGUUUCUGAAGGCUCUAACACUUUUGCGGCUGGGGGCUCUACCAACAUGAUCUUUGAUGGCUCUGGAGAUGUGCUCUCCACAGAUUUCAGCAACAGAGGAUUGAGCAUCA
B7: chr11:87793471:87793472:-_ENSMUSG00000020483_ENSMUST00000020775|mus_mus|mus_mus_mus_hu_False|48_48 (ssRNA)
RNA: GGGAGUUCUACAGUCCGACGAUCUGGACUUGAAAAUAAAAGAAUAAGCUGGAUCCCCCACCCCCCCACAUUGUCAACCCUACACGAGUUCUGAAUGGGCGACUCAUGAAAAUCAGCAGCUCAAACGGCAAUGACCACCCCACCCAACAGAGGAUUGAGCAUCA
B8: 104370750_104373640_372_CDS_ENSG00000139372_ENST00000392872|human|control|control (ssRNA)
RNA: GGGAGUUCUACAGUCCGACGAUCUCUGGGUUUUCUUUUUCUUCCUUUUGGAGCCUCUUGCACUGGUUCCUGAGCAGGAGCUGGGGCUGGAACUUCUUCUGGCAUUUGCUGUUCAUUCACAACUGCCAUAUUAGGAGCUUCAGCCAACAGAGGAUUGAGCAUCA
B9: chr2:217001844:217001845:+_ENSG00000079246_ENST00000392132|hu_hu|hu_hu_hu_mus_False|18_98 (ssRNA)
RNA: GGGAGUUCUACAGUCCGACGAUCACCAACUUGAGGAUUAGCUCUUUUGUCAUAAGCAUAUCGGACGAUGGCGACCAUGUUUAACUCAUCCAAAGCAUGAACGAGAGAGGAAAGGGCAACUGCAGCUGCCUCAUCAUCCUUUGCCAACAGAGGAUUGAGCAUCA
B10: 110440431_110441028_1743_CDS_ENSG00000134987_ENST00000506538|human|control|control (ssRNA)
RNA: GGGAGUUCUACAGUCCGACGAUCUACCGUGGAAAAUGACUGAAGAGUUCCAUCUUGACUUGCACUUAGAAUCUGCUGUCCAUUCUGUCCAUAAUAUCUGAUAUUGGUAAGAGGAGCACUAUGACCCAUUCUGAAUCUCAAAAGCAACAGAGGAUUGAGCAUCA
B11: chr8:97153689:97153690:+_ENSMUSG00000050079_ENSMUST00000060389|mus_hu|FALSE|FALSE (ssRNA)
RNA: GGGAGUUCUACAGUCCGACGAUCAUCUAGUAACAAUGUUAUAACAGCUGGUCCCAGUGGAUCUUCCAGUGGAAUAACUCUAAUUAAAGACUGGACAACAUCCAACCAUCCUUCAUCUGUUUCUGCCAUUUCGUGUAAUGUUAUCAACAGAGGAUUGAGCAUCA
B12: chr4:17845017:17845018:+_ENSG00000109805_ENST00000514176|hu_mus|hu_hu_hu_mus_False|8_78 (ssRNA)
RNA: GGGAGUUCUACAGUCCGACGAUCGCUCUCUUAACUUGUAUCUUCAUUAAGGAACUCGCAAGGUUAAAGUUUACUUUUCUGUAGCGCAGCUGUUUUGGCUCGUCUGGGUAAUCUCAUCUUCAUUUCUAUUCUGGUUCCAUGAUCCAACAGAGGAUUGAGCAUCA
B13: chr7:90019490:90019491:+_ENSMUSG00000057706_ENSMUST00000082237|mus_mus|motif|central (ssRNA)
RNA: GGGAGUUCUACAGUCCGACGAUCUCCGUCACAAUCGUGUGAUUAUUAAAAUAAUACAGUGUUCUUUGCCAUAAGGCCAUACGGAAAAUAAAAAGAUUUAACCCAGCUACAAAAAAGUUCACUGAACUUAAAUUAAAAUACUUGCAACAGAGGAUUGAGCAUCA
B14: 16802499_16805016_666_CDS_ENSMUSG00000024304_ENSMUST00000115850|mouse|control|control (ssRNA)
RNA: GGGAGUUCUACAGUCCGACGAUCAUCAUUCAUGUCAAUAACAUUGAUGACAAUGUCAAUGGGGUUCUCCACUUGAUUGCCAUUGAUGUCCACUGCAUGUGCUCUCAAGUGAAACCGGGCUAUCAGCUCUCGAUCCAGAGGCUUCAACAGAGGAUUGAGCAUCA

Target: T1, UNK ZnF1-3
Test: nsRBNS (natural sequence RNA bind-n-seq); RBNS binding buffer (assumed for nsRBNS): 25 mM Tris pH 7.5, 150 mM KCl, 3 mM MgCl2, 0.01% Triton X-100, 500 ug/ml BSA, 20 U/ml SUPERase-In, 4 C; UNK is unkempt and MSI1 is Musashi-1; names of the RNAs are library labels; protein concentration not given here; high values mean tight binding

How did the binding signal turn out when B1 was run?
The binding signal was 1.45 enrichment R.

Which binding signal does the source give for B2 here?
The binding signal was 1.09 enrichment R.

Which binding signal does the source give for B3 here?
The binding signal was 0.637 enrichment R.

B4 was tested. Which binding signal did it give?
The binding signal was 0.737 enrichment R.

With B5 as the binder, how does the binding signal read?
Its binding signal is 1.35 enrichment R.

For B6, which binding signal is on record?
The binding signal was 0.536 enrichment R.

With B7 as the binder, how does the binding signal read?
Its binding signal is 1.88 enrichment R.

Which binding signal does the source give for B8 here?
The binding signal was 0.346 enrichment R.

B9 was tested. Which binding signal did it give?
Its binding signal is 1.77 enrichment R.

Which binding signal does the source give for B10 here?
The binding signal was 1.24 enrichment R.

For B11, which binding signal is on record?
Its binding signal is 0.926 enrichment R.

With B12 as the binder, how does the binding signal read?
The binding signal was 0.429 enrichment R.

How did the binding signal turn out when B13 was run?
Its binding signal is 1.38 enrichment R.

For B14, which binding signal is on record?
The binding signal was 0.627 enrichment R.
